# Reference: PubChem BioAssay AID504832 (National Center for Advancing Translational Sciences (NCATS), 2011)
# Where “and” joins values, the source holds several entries; their conditions need not be identical. Equal entries are not always repeated. In all, about 310,000 compounds went through this assay and about 18,000 (5.8%) were called active. Inconclusive means that the source gave no clear call. Such entries were picked first, then a sample of the others. Calls follow the shape of the dose curve; as a rule, active = well fitted inhibition curve with a large enough effect; inconclusive = small, poorly fitted or top-dose-only effect, or another doubt; inactive = no such curve, though single readings can be large or run the other way. A potency beside an inconclusive call is a rough fit, not a confirmed value.
# Assay: Primary qHTS for delayed death inhibitors of the malarial parasite plastid, 48 hour incubation
# Details: P. falciparum luciferase growth in erythrocytes; series mostly up to 28.7 µM
# Outline: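 Growth was read as firefly luciferase luminescence after a 48 h, 37 C, 5% CO2 exposure of compounds to reporter-bearing P. falciparum cultures (0.1% parasitemia, 2% hematocrit final) in Albumax-supplemented RPMI 1640.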
# Potency is read from the fitted curve at half-maximal effect; tags tell the direction and shape of the fitted curve.
row,SMILES,Potency
1,COc1ccccc1Nc1nnc(SC(C)C(=O)NC2CC2)s1 (configuration not stated),active: 10.4 µM
2,CC(=O)OCCNc1cc(N2CCN(C)CC2)c2noc3c2c1C(=O)c1ccccc1-3,"inconclusive: 18.5 µM [inhibitor, single point]"
3,CC(=O)c1ccc(NC(=O)N2CCN(c3cccc(Cl)c3)CC2)cc1,active: 4.65 µM
4,COc1ccc(NC(=O)c2cc([N+](=O)[O-])ccc2O)cc1,inactive
5,CCOc1ccc(-n2ccnc2SCC(=O)Nc2cc(C)on2)cc1,inactive
6,COc1ccc(/C=C2\SC(=O)N(CCNC(=O)Cc3coc4cc(C)ccc34)C2=O)cc1OC,"inconclusive: 18.5 µM [inhibitor, single point]"
7,CN1CCc2c(C#N)c(N3CCCCC3)nc(NCc3ccccc3)c2C1,"inconclusive: 9.28 µM [inhibitor, partial curve, poor fit]"
8,COc1ccc(CNC(=O)COC(=O)c2c(NC(C)=O)sc(C)c2C)cc1,"inconclusive: 9.28 µM [inhibitor, partial curve]"
9,COCCCN1C(=O)C(=O)/C(=C(/O)c2ccc(S(=O)(=O)N3CCCCC3)cc2)C1c1ccc(OC)cc1 (configuration not stated),inactive
10,COC(=O)c1ccccc1NC(=O)c1cc(C)no1,"inconclusive: 0.0738 µM [inhibitor, full curve, poor fit]"
11,CCCN1c2cccc3cccc(c23)S1(=O)=O,"inconclusive: 10.4 µM [inhibitor, single point]"
12,COc1cnc(-c2ccccn2)nc1Oc1ccc(Cl)c2ccccc12,active: 2.08 µM
13,Cc1cccnc1NC(=O)CN1C(=O)NC(C)(c2ccc3ccccc3c2)C1=O (configuration not stated),"inconclusive: 18.5 µM [inhibitor, single point]"
14,Cc1c(-c2c(C#N)c(N)nc3c2CCCCCC3)cnn1C,"inconclusive: 11.7 µM [inhibitor, single point]"
15,CCOCCCNc1c(CC)c(C)c(C#N)c2nc3ccccc3n12,active: 3.29 µM
16,CCCOc1ccccc1/C=C1\SC(N2CCCCC2)=NC1=O,"inconclusive: 1.17 µM [inhibitor, partial curve]"
17,Cc1cc(C)nc(SCc2ccc(Br)cc2)n1,"inconclusive: 0.0117 µM [inhibitor, full curve, poor fit]"
18,O=C(CN1C(=O)/C(=C/c2ccccc2Cl)SC1=S)NC1CCS(=O)(=O)C1 (configuration not stated),inactive
19,Cc1c(-c2cccc(NC(=O)c3ccco3)c2)nc2ncccn12,"inconclusive: 18.5 µM [inhibitor, partial curve, poor fit]"
20,COCCCn1c(N)c(-c2nc3ccccc3n2C)c2nc3ccccc3nc21,"inconclusive: 18.5 µM [inhibitor, single point]"
21,CCCC(=O)Nc1ccc(NC(=O)c2ccccc2OC)cn1,"inconclusive: 18.5 µM [inhibitor, single point]"
22,CCOc1ccc(C(c2c(C)[nH][nH]c2=O)c2c(C)[nH][nH]c2=O)cc1OC,"inconclusive: 18.5 µM [inhibitor, single point]"
23,COc1ccc(CN(C2CCCC2)S(=O)(=O)c2ccc(-n3cnnn3)c(OC)c2)cc1OC,active: 14.7 µM

row,SMILES,Potency
1,CCN(CC(=O)NCc1cccs1)C(=O)/C=C/c1ccc(OC)cc1OC,inactive
2,COc1ccc(CCN2CC(C(=O)OCC(=O)NC(C)c3cccc(Cl)c3)CC2=O)cc1OC (configuration not stated),"inconclusive: 11.7 µM [inhibitor, single point]"
3,O=C(Cc1ccc2ccccc2c1)Nc1ccccc1Br,"inconclusive: 18.5 µM [inhibitor, single point]"
4,Cc1ccc(S(=O)(=O)N(Cc2ccccc2)c2ccccc2C(=O)NCc2cccnc2)cc1,active: 5.22 µM
5,Cc1ccccc1-c1ccc(C(=O)Nc2cccc(F)c2)o1,inactive
6,Cc1c(C(=O)NC2CCCc3ccccc32)oc2ccc(S(=O)(=O)N3CCCCC3)cc12 (configuration not stated),"inconclusive: 2.94 µM [inhibitor, partial curve, poor fit]"
7,O=c1[nH]c(=O)n([C@H]2C[C@H](O)[C@@H](CO)O2)cc1F,"inconclusive: 21.3 µM [inhibitor, partial curve, poor fit] and inconclusive: 16.5 µM [inhibitor, single point]"
8,N#Cc1ccccc1OCC(=O)OCC(=O)NC1CC1,inactive
9,Cc1cc(C(=O)CSc2nnnn2-c2ccc(O)cc2)c(C)n1Cc1ccc2c(c1)OCO2,"inconclusive: 18.5 µM [inhibitor, single point]"
10,CCC(C)N1C(=O)/C(=C/c2c(NCCCOC(C)C)nc3c(C)cccn3c2=O)SC1=S (configuration not stated),active: 1.17 µM
11,CCOc1cc(N2CCOCC2)c(OCC)cc1NC(=O)CN1C(=O)NC(CC(C)C)C1=O (configuration not stated),"inconclusive: 11.7 µM [inhibitor, single point]"
12,Cc1cc(C)c2c(=O)[nH]c(SCC(=O)Nc3ccc(Br)cc3)nc2n1,inactive
13,Cc1cccc(N2C(=O)SC(SC(=Nc3ccccc3)Nc3ccccc3)C2=O)c1 (configuration not stated),"inconclusive: 18.5 µM [inhibitor, single point]"
14,O=C(Nc1ccc2c(c1)OCCO2)C1CCN(C(=O)c2ccc(Cl)cc2)CC1,inactive
15,Cc1cc(SCC(=O)NC2(C#N)CCCCC2)nc2c(C)cccc12,inactive
16,COc1ccc(S(=O)(=O)N2CCCCCC2)cc1C(=O)N(C)CC(=O)Nc1ccccc1Cl,"inconclusive: 14.7 µM [inhibitor, single point]"
17,CC(C)(C)NCC(O)CON=C1c2ccccc2-c2ccccc21 (configuration not stated),"inconclusive: 18.5 µM [inhibitor, single point]"
18,Cc1nn(C)c(C)c1CN(C)C(=O)c1cc2n(n1)C(C(F)(F)F)CC(c1cccs1)N2 (configuration not stated),"inconclusive: 9.28 µM [inhibitor, partial curve, poor fit]"
19,CCCCn1c(SCC(=O)NC2CCCC2)nc2ccccc2c1=O,"inconclusive: 4.15 µM [inhibitor, partial curve, poor fit]"
20,O=C(c1cn(-c2ccccc2)nc1-c1ccc(Br)cc1)N1CCOCC1,"inconclusive: 11.7 µM [inhibitor, partial curve, poor fit]"
21,Cn1c(Oc2ccccc2)c(C=O)c2ccccc21,"inconclusive: 5.86 µM [inhibitor, partial curve, poor fit]"
22,CCOc1cc(NC(=S)Nc2ccccc2OC)c(OCC)cc1NC(=O)c1ccccc1C,"inconclusive: 18.5 µM [inhibitor, single point]"
23,CCOc1ccc2c(=O)c(Oc3ccccc3)c(C)oc2c1,"inconclusive: 0.465 µM [inhibitor, partial curve, poor fit]"

row,SMILES,Potency
1,COc1ccc([C@@H]2[C@@H]3C(=O)N(C(C)(C)C)C(=O)[C@@H]3[C@]3(Cc4ccc(Cl)cc4)C(=O)N(c4ccc(OC)cc4)C(=O)N23)cc1,"inconclusive: 16.5 µM [inhibitor, partial curve, poor fit]"
2,Cc1cccc(C)c1OCC(=O)NC1CC1,active: 2.94 µM
3,CCOc1ccc(OCC)c(S(=O)(=O)n2cc(C)nc2CC)c1,"inconclusive: 9.28 µM [inhibitor, partial curve]"
4,Cc1ccc(C)c(N(CC(=O)NCc2ccco2)C(=O)CCC(=O)Nc2nccs2)c1,inactive
5,CCOc1ccc(N(CC(=O)Nc2ccc(OC)cc2)C2=NC3CS(=O)(=O)CC3S2)cc1 (configuration not stated),inactive
6,COc1ccc(Nc2nc(Cl)nc(N3CCN(c4ccc(OC)cc4)CC3)n2)cc1,"inconclusive: 14.7 µM [inhibitor, partial curve, poor fit]"
7,Cc1nn(C)c(NC(=O)c2ccc(Cl)cc2)c1Cl,"inconclusive: 11.7 µM [inhibitor, partial curve, poor fit]"
8,CC12OC1C1(O)CCCC1=CC2=O (configuration not stated),"inconclusive: 10.4 µM [inhibitor, single point]"
9,COc1ccc(Cl)cc1NC(=O)c1ccccc1C,"inconclusive: 10.4 µM [inhibitor, single point]"
10,COCC(=O)Nc1nnc(C2CCCCC2)s1,inactive
11,COC(=O)C1(CCSC)NC(c2ccccc2OC)C2C(=O)N(C)C(=O)C21 (configuration not stated),inactive
12,COCC1CCN(C(=O)C2CCC(=O)N(Cc3cccc(C(F)(F)F)c3)C2)CC1 (configuration not stated),"inconclusive: 3.7 µM [inhibitor, partial curve, poor fit]"
13,COc1cc(OC)c(-n2cc(-c3ccc(OC)c(OC)c3)[nH]c2=S)cc1Cl,"inconclusive: 18.5 µM [inhibitor, single point]"
14,O=C(Nc1ccc(S(=O)(=O)N2CCc3ccccc32)cc1)c1ccco1,"inconclusive: 13.1 µM [inhibitor, partial curve, poor fit]"
15,COc1ccccc1C1=NOC(C)(c2nnc(Cc3ccccc3)o2)C1 (configuration not stated),"inconclusive: 8.28 µM [inhibitor, partial curve, poor fit]"
16,CCN1CCc2c(OCC(=O)N3CCCc4ccccc43)cccc2C1=O,"inconclusive: 5.86 µM [inhibitor, partial curve, poor fit]"
17,COc1ccccc1N1CCN(C2CCCCC2NS(=O)(=O)c2ccc(Cl)cc2)CC1 (configuration not stated),"inconclusive: 9.28 µM [inhibitor, partial curve]"
18,O=C(c1ccc(CS(=O)(=O)c2ccccc2)o1)N1CCC2(CC1)OCCO2,inactive
19,Cc1nn(Cc2ccccc2Cl)c(C)c1C(=O)Nc1nnc(C2CC2)s1,"inconclusive: 18.5 µM [inhibitor, single point]"
20,Cc1cc(C(F)(F)F)nn1CC(=O)NCc1cccs1,inactive
21,CCCCCCOc1ccc(/C=N/NC(=O)C2CC2)cc1,"inconclusive: 9.28 µM [inhibitor, partial curve]"
